Consider 28 compounds from the antibiotic and cytotoxicity screens of Wong et al. (2023).

The other results are listed elsewhere or left out.

One test relates to HSkMC. Description: cytotoxicity call (relative viability < 0.9). The settings on record: 10 µM.
The next test has as its system HepG2. Kind of test: cytotoxicity call (relative viability < 0.9). The conditions noted are these: 10 µM.
The subject of the next test is S. aureus RN4220. Description: growth inhibition call (relative growth <= 0.2). The conditions noted are these: 50 µM.

For `NC(=O)c1cc(N)ccc1F`, the cytotoxicity call in the test on HSkMC and in the test on HepG2 was “inactive” each time. The growth inhibition call in the test on S. aureus RN4220 was “inactive”.

In the case of `COc1ccc(S(=O)(=O)N(C)C[C@@H]2OCc3cnnn3CCCC(=O)N([C@H](C)CO)C[C@H]2C)cc1`, the cytotoxicity call with HSkMC and in the test with HepG2 was “inactive” in each case. Besides, in the test on S. aureus RN4220, the growth inhibition call was “inactive”.

For the compound `C[C@@H]1CCCCO[C@H](CN(C)Cc2ccc(C(=O)O)cc2)[C@@H](C)CN([C@H](C)CO)C(=O)c2cc(NS(=O)(=O)c3ccccc3)ccc2O1`, the cytotoxicity call in the test with HSkMC and with HepG2 was “inactive” throughout. Moreover, in the test with S. aureus RN4220, the growth inhibition call was “inactive”.

For `C[C@H]1CN([C@@H](C)CO)C(=O)c2cc(NC(=O)Cn3cnnn3)ccc2O[C@@H]1CN(C)C(=O)Nc1ccccc1`, the cytotoxicity call with HSkMC and with HepG2 was “inactive” throughout. Moreover, the growth inhibition call with S. aureus RN4220 is “inactive”.

In the case of `Cc1noc(C)c1S(=O)(=O)N(C)C[C@@H]1OCc2cnnn2CCCC(=O)N([C@@H](C)CO)C[C@@H]1C`, the cytotoxicity call in the test with HSkMC and in the test on HepG2 was “inactive” each time. In addition, in the test on S. aureus RN4220, the growth inhibition call was “inactive”.

On to `NC(C(=O)NC1C(=O)N2C(C(=O)O)=C(Cl)CSC12)c1ccccc1` (centres undefined), for which the cytotoxicity call with HSkMC and in the test on HepG2 was “inactive” throughout. In the test with S. aureus RN4220, the growth inhibition call was “active”.

For `Cc1noc(C)c1NC(=O)Nc1cccc2c1O[C@@H](CN(C)C(=O)NC(C)C)[C@H](C)CN([C@H](C)CO)C2=O`, the cytotoxicity call in the test on HSkMC and in the test on HepG2 was “inactive” in each case. Besides, in the test with S. aureus RN4220, the growth inhibition call is “inactive”.

For the compound `C[C@@H]1CCCCO[C@@H](CN(C)C(=O)Nc2ccc3c(c2)OCO3)[C@@H](C)CN([C@@H](C)CO)C(=O)c2cc(NC(=O)C3CCCCC3)ccc2O1`, the cytotoxicity call in the test on HSkMC and with HepG2 was “inactive” each time. Moreover, in the test with S. aureus RN4220, the growth inhibition call is “inactive”.

As to `Cc1noc(C)c1S(=O)(=O)Nc1ccc2c(c1)CC(=O)N([C@H](C)CO)C[C@H](C)[C@H](CN(C)Cc1ccc3c(c1)OCO3)O2`, the cytotoxicity call with HSkMC and with HepG2 was “inactive” in each case. Besides, the growth inhibition call with S. aureus RN4220 was “inactive”.

For `C[C@@H]1CCCCO[C@H](CN(C)Cc2ccncc2)[C@@H](C)CN([C@H](C)CO)C(=O)c2cc(NS(=O)(=O)c3ccc(Cl)cc3)ccc2O1`, the cytotoxicity call with HSkMC and with HepG2 was “inactive” each time. Also, in the test on S. aureus RN4220, the growth inhibition call was “inactive”.

Take `C[C@@H]1CN([C@@H](C)CO)S(=O)(=O)c2ccc(C#CCN(C)C)cc2O[C@@H]1CN(C)Cc1cccnc1`: the cytotoxicity call in the test on HSkMC and in the test with HepG2 was “inactive” in each case. Further, in the test with S. aureus RN4220, the growth inhibition call was “inactive”.

Turning to `C[C@@H]1CN([C@@H](C)CO)C(=O)Cc2cc(NS(=O)(=O)c3ccc(F)cc3)ccc2O[C@H]1CN(C)Cc1ccc(-c2ccccc2)cc1`, the cytotoxicity call with HSkMC and in the test with HepG2 was “inactive” each time. In the test with S. aureus RN4220, the growth inhibition call was “inactive”.

For the compound `C[C@@H]1CCCCO[C@H](CN(C)Cc2ccc(Cl)c(Cl)c2)[C@@H](C)CN([C@H](C)CO)C(=O)c2cc(NC(=O)Cc3ccccc3)ccc2O1`, the cytotoxicity call in the test on HSkMC was “inactive”. The cytotoxicity call in the test with HepG2 is “active”. The growth inhibition call in the test with S. aureus RN4220 is “inactive”.

`O=C(CCCCCCC(=O)Nc1ccc([C@H]2O[C@@H](CSc3ccccn3)C[C@H](c3ccccc3)O2)cc1)NO`: the cytotoxicity call in the test on HSkMC and in the test on HepG2 was “inactive” each time. In addition, the growth inhibition call in the test on S. aureus RN4220 is “inactive”.

Regarding `C[C@@H]1CCCCO[C@H](CN(C)S(=O)(=O)c2cn(C)cn2)[C@@H](C)CN([C@@H](C)CO)C(=O)c2cc(NC(=O)c3ccncc3)ccc2O1`, the cytotoxicity call in the test on HSkMC and in the test with HepG2 was “inactive” each time. In addition, in the test on S. aureus RN4220, the growth inhibition call was “inactive”.

In the case of `Cc1cccc(OC[C@@H](O)CN)c1`, the cytotoxicity call with HSkMC and with HepG2 was “inactive” in each case. In the test on S. aureus RN4220, the growth inhibition call is “inactive”.

Turning to `C[C@@H]1CCCCO[C@@H](CN(C)C(=O)Nc2cccc3ccccc23)[C@@H](C)CN([C@H](C)CO)C(=O)c2cc(NC(=O)NC3CCCCC3)ccc2O1`, the cytotoxicity call in the test with HSkMC and with HepG2 was “inactive” each time. Moreover, the growth inhibition call in the test on S. aureus RN4220 was “inactive”.

In the case of `Cc1noc(C)c1S(=O)(=O)Nc1ccc2c(c1)C(=O)N([C@H](C)CO)C[C@@H](C)[C@@H](CN(C)C(=O)Nc1ccc(C(F)(F)F)cc1)OCCCC[C@@H](C)O2`, in the test on HSkMC, the cytotoxicity call is “inactive”. Moreover, in the test with HepG2, the cytotoxicity call is “active”. Moreover, the growth inhibition call in the test with S. aureus RN4220 is “inactive”.

As for `C[C@@H]1CN([C@H](C)CO)C(=O)CCCn2nncc2CO[C@@H]1CN(C)C(=O)Nc1ccc(C(C)(C)C)cc1`, the cytotoxicity call with HSkMC and in the test with HepG2 was “inactive” in each case. The growth inhibition call in the test on S. aureus RN4220 is “inactive”.

Turning to `COc1ccc(CN(C)C[C@H]2Oc3ccc(NC(=O)C4CC4)cc3CC(=O)N([C@H](C)CO)C[C@@H]2C)cc1`, the cytotoxicity call in the test on HSkMC and with HepG2 was “inactive” in each case. The growth inhibition call in the test on S. aureus RN4220 is “inactive”.

Take `CN(CC(=O)O)S(=O)(=O)c1ccc(F)cc1`: the cytotoxicity call in the test with HSkMC and in the test with HepG2 was “inactive” each time. Moreover, in the test with S. aureus RN4220, the growth inhibition call is “inactive”.

For `COc1ccc(CN(C)C[C@H]2Oc3ccc(NS(=O)(=O)c4c(C)noc4C)cc3CC(=O)N([C@H](C)CO)C[C@H]2C)cc1`, the cytotoxicity call in the test on HSkMC and with HepG2 was “inactive” throughout. For the same compound, the growth inhibition call with S. aureus RN4220 was “inactive”.

For the compound `C[C@H]1CN([C@@H](C)CO)C(=O)Cc2cc(NC(=O)Nc3ccc(F)cc3)ccc2O[C@H]1CN(C)S(=O)(=O)c1cn(C)cn1`, the cytotoxicity call in the test with HSkMC and in the test with HepG2 was “inactive” in each case. Also, the growth inhibition call in the test on S. aureus RN4220 was “inactive”.

Consider `CCN(CC)c1ccc(N2CC=C[C@@]34O[C@@H]5C=CCCOC(=O)[C@@H]5[C@H]3C(=O)N(CCCO)[C@@H]4C2=O)cc1`, for which the cytotoxicity call with HSkMC and in the test with HepG2 was “inactive” in each case. In addition, the growth inhibition call in the test with S. aureus RN4220 was “inactive”.

For `COC[C@]1(O)CCN(C(=O)CCN(C)S(C)(=O)=O)CC1(C)C`, the cytotoxicity call in the test with HSkMC and in the test with HepG2 was “inactive” each time. In the test on S. aureus RN4220, the growth inhibition call was “inactive”.

With `C[C@H]1CN([C@@H](C)CO)C(=O)c2cc(NC(=O)CCCCCC(=O)Nc3ccccc3N)ccc2O[C@@H]1CN(C)C(=O)Nc1ccc(F)cc1`, the cytotoxicity call in the test on HSkMC and in the test on HepG2 was “inactive” in each case. In the test with S. aureus RN4220, the growth inhibition call is “inactive”.

Consider `C[C@H]1CN([C@@H](C)CO)C(=O)CCCn2nncc2CO[C@H]1CN(C)C(=O)c1cc(-c2ccccc2)on1`, for which the cytotoxicity call with HSkMC and with HepG2 was “inactive” in each case. Moreover, in the test with S. aureus RN4220, the growth inhibition call was “inactive”.

With `C[C@H](CO)N1C[C@H](C)[C@H](CN(C)CC2CCCCC2)OCCCC[C@H](C)Oc2ccc(NS(=O)(=O)c3ccccc3)cc2C1=O`, the cytotoxicity call in the test on HSkMC (human skeletal muscle cells) and in the test on HepG2 was “inactive” each time. The growth inhibition call with S. aureus RN4220 was “inactive”.
